In the supplement of paper PMC9446081 one finds relative growth data, which are given here for 40 molecules.

Molecules are shown by their SMILES. Out of some 39,000 compounds screened, about 220 (0.56%) showed activity. The list shows a part of the results.
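Also: static incubation at 37 °C against the wild-type strain, values averaged over two biological replicates.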

The assay relates to Escherichia coli K-12 BW25113. Description: relative growth (OD600 normalised to plate interquartile mean) (fraction); higher = less growth inhibition, active = 0.2 or less. The following applies: 50 µM; LB; incubation time: overnight (16-24 h).
Regarding `C[C@H](CO)N1C[C@H](C)[C@@H](CN(C)Cc2ccc(C(=O)O)cc2)Oc2ccc(NS(=O)(=O)c3ccccc3)cc2CC1=O`, the relative growth was inactive: 1.

Take `CCCN(C)C[C@@H]1OCCCC[C@@H](C)Oc2ccc(NC(=O)Nc3ccc(F)cc3)cc2C(=O)N([C@H](C)CO)C[C@@H]1C`: the relative growth is inactive: 0.999.

As to `COc1ccc(S(=O)(=O)N(C)C[C@H]2Oc3ccc(NC(=O)NC(C)C)cc3C(=O)N([C@@H](C)CO)C[C@@H]2C)cc1`, the relative growth was inactive: 1.01.

For the molecule `NC(=NC(=O)N1CCOCC1)c1ccccc1`, the relative growth is inactive: 0.992.

For `C[C@H]1CN([C@@H](C)CO)C(=O)c2cccc(NC(=O)NC3CCCCC3)c2O[C@@H]1CN(C)C(=O)Nc1cccc2ccccc12`, the relative growth was inactive: 0.914.

With `O=C1CCc2c(ccc3ccccc23)O1`, the relative growth was inactive: 0.953.

With `CN1CCN(C(=O)C[C@@H]2C=C[C@@H](NC(=O)c3ccc4c(c3)OCO4)[C@@H](CO)O2)CC1`, the relative growth is inactive: 1.

As for `C[C@H]1CN([C@@H](C)CO)C(=O)Cc2cc(NC(=O)CCC(F)(F)F)ccc2O[C@@H]1CN(C)Cc1ccc(Oc2ccccc2)cc1`, the relative growth is inactive: 0.986.

As for `CNC[C@@H]1Oc2cc(C#CCN(C)C)ccc2S(=O)(=O)N([C@@H](C)CO)C[C@H]1C`, the relative growth is inactive: 0.981.

Turning to `C[C@@H]1CN([C@H](C)CO)C(=O)c2c(c3ccccc3n2C)-c2ccccc2CO[C@H]1CN(C)S(=O)(=O)c1cn(C)cn1`, the relative growth is inactive: 0.993.

On to `Cc1cccc(N2C[C@@H](N)CC2=O)c1`, for which the relative growth was inactive: 1.01.

`C[C@@H]1CN([C@H](C)CO)C(=O)c2cc(NC(=O)Cn3cnnn3)ccc2O[C@H]1CN(C)S(=O)(=O)c1cccs1`: the relative growth is inactive: 0.994.

`O=C(C[C@H]1CC[C@H]2[C@@H](COC[C@H](O)CN2S(=O)(=O)c2ccc(F)cc2)O1)NCc1ccncn1`: the relative growth is inactive: 1.

With `COCC#Cc1cnc2c(c1)C(=O)N([C@@H](C)CO)C[C@H](C)[C@H](CN(C)S(=O)(=O)c1ccccc1)O2`, the relative growth is inactive: 1.

For the molecule `CCc1ccc(CCOc2ccc(CC3SC(=O)NC3=O)cc2)nc1.Cl` (stereo not given), the relative growth is inactive: 1.07.

`C[C@@H]1CN([C@@H](C)CO)C(=O)c2cc(C#CCN(C)C)cnc2O[C@@H]1CN(C)C(=O)Nc1cc(F)ccc1F`: the relative growth was inactive: 0.989.

In the case of `Cn1c(=O)c2c(ncn2C)n(C)c1=O`, the relative growth was inactive: 0.885.

`O=C(C[C@H]1CC[C@@H]2NC[C@H](O)COC[C@H]2O1)NCCN1CCCCC1`: the relative growth was inactive: 0.982.

`O=C(O)[C@@H]1C[C@H](C(F)(F)F)CN1`: the relative growth is inactive: 0.985.

`COc1ccccc1CNC(=O)C[C@@H]1CC[C@H]2[C@@H](COC[C@@H](O)CN2C(=O)Nc2ccc(Cl)cc2)O1`: the relative growth was inactive: 0.953.

For the molecule `C[C@H](CO)N1C[C@H](C)[C@@H](CN(C)Cc2ccc(Cl)c(Cl)c2)Oc2ccc(NC(=O)Nc3cccc4ccccc34)cc2C1=O`, the relative growth was inactive: 1.02.

As to `O=C(C[C@@H]1C[C@@H]2c3cc(NC(=O)c4ccc5c(c4)OCO5)ccc3O[C@@H]2[C@@H](CO)O1)NCc1ccc(Oc2ccccc2)cc1`, the relative growth is inactive: 1.02.

With `COCCOC(=O)N1C(=O)[C@@]2(c3cc(C#CCC(C(=O)OC)C(=O)OC)ccc31)[C@H](c1ccc(O)cc1)N1[C@H](c3ccccc3)[C@H](c3ccccc3)OC(=O)[C@H]1[C@@H]2C(=O)N1CCc2cc(OC)c(OC)cc2C1`, the relative growth is inactive: 0.99.

Turning to `Cn1c(=O)c2c(ncn2CCCCn2cnc3c2c(=O)n(C)c(=O)n3C)n(C)c1=O`, the relative growth is inactive: 0.965.

In the case of `C[C@@H]1CN([C@H](C)CO)C(=O)c2cc(NC(=O)CCC(F)(F)F)ccc2O[C@@H](C)CCCCO[C@@H]1CN(C)Cc1ccncc1`, the relative growth is inactive: 1.01.

For `C[C@@H]1CN([C@H](C)CO)C(=O)c2cccc(NC(=O)C3CCCCC3)c2O[C@@H]1CN(C)Cc1ccc(C(F)(F)F)cc1`, the relative growth was inactive: 0.884.

Regarding `C[C@@H]1NC(=O)[C@@]23C(=O)N[C@@H](Cc4ccccc4)[C@@H]2[C@H](C)[C@@]2(C)O[C@H]2[C@H]3/C=C/C/C=C\CNC(=O)[C@@H]2CCCN2C1=O`, the relative growth is inactive: 1.

As for `C[C@@H]1CN([C@H](C)CO)C(=O)c2c(c3ccccc3n2C)-c2ccccc2CO[C@H]1CN(C)Cc1ccc(F)cc1`, the relative growth was inactive: 0.993.

In the case of `C[C@H]1CN([C@@H](C)CO)C(=O)CCCn2cc(nn2)CO[C@H]1CN(C)C(=O)CCCN(C)C`, the relative growth was inactive: 0.986.

`Cc1noc(C)c1NC(=O)Nc1ccc2c(c1)C(=O)N([C@H](C)CO)C[C@@H](C)[C@@H](CN(C)Cc1ccc(Cl)c(Cl)c1)O2`: the relative growth was inactive: 1.03.

Regarding `C[C@H]1CN([C@@H](C)CO)C(=O)Cc2cc(NC(=O)Nc3cccc4ccccc34)ccc2O[C@H]1CN(C)C(=O)Nc1cccc2ccccc12`, the relative growth was inactive: 1.01.

Turning to `C[C@@H]1CN([C@H](C)CO)C(=O)c2c(c3ccccc3n2C)-c2ccccc2CO[C@@H]1CN(C)C(=O)CCC(F)(F)F`, the relative growth is inactive: 0.942.

Regarding `Cc1noc(C)c1S(=O)(=O)N(C)C[C@H]1Oc2ccc(NS(=O)(=O)c3cccs3)cc2CC(=O)N([C@@H](C)CO)C[C@@H]1C`, the relative growth was inactive: 0.998.

As to `COc1cccc(-c2ccc3c(c2)O[C@H](CN(C)C(=O)C2CCC2)[C@H](C)CN([C@@H](C)CO)S3(=O)=O)c1`, the relative growth is inactive: 1.

As for `C[C@@H]1CCCCO[C@H](CN(C)C(=O)CCC(F)(F)F)[C@H](C)CN([C@@H](C)CO)C(=O)c2cc(NC(=O)c3ccccc3)ccc2O1`, the relative growth is inactive: 0.962.

Consider `CCCN(C)C[C@H]1Oc2cc(C#Cc3ccc(OC)cc3)ccc2S(=O)(=O)N([C@@H](C)CO)C[C@H]1C`, for which the relative growth is inactive: 1.01.

With `C[C@H](CO)N1C[C@H](C)[C@H](CN(C)C)Oc2ccc(NC(=O)Cc3cn(C)c4ccccc34)cc2CC1=O`, the relative growth is inactive: 0.984.

As to `C[C@@H]1CN([C@H](C)CO)C(=O)c2cc(NC(=O)Nc3ccc(F)cc3)ccc2O[C@@H](C)CCCCO[C@H]1CN(C)S(=O)(=O)c1ccccc1`, the relative growth was inactive: 1.

In the case of `C[C@@H]1CN([C@@H](C)CO)C(=O)c2cc(NS(=O)(=O)c3ccccc3)ccc2O[C@H]1CN(C)S(=O)(=O)c1cccs1`, the relative growth was inactive: 1.02.

Take `CS(=O)(=O)Nc1ccc2c(c1)[C@@H]1C[C@H](CC(=O)NCc3ccc(-c4ccccc4)cc3)O[C@H](CO)[C@@H]1O2`: the relative growth is inactive: 0.969.
